Measurements published in paper PMC4336329 (PLoS ONE, 2015).
Hit rate of the full screen: of about 310,000 compounds, about 2,200 (0.71%) showed an effect of 50% or more. Effects have a minus sign here. The list shows a part of the results.

biological target: human ether-à-go-go-related gene (hERG) potassium channel (human, UniProt Q12809); assay: primary screen, population patch clamp on CHO cells stably expressing hERG
Sequence (Q12809 whole entry, looked up): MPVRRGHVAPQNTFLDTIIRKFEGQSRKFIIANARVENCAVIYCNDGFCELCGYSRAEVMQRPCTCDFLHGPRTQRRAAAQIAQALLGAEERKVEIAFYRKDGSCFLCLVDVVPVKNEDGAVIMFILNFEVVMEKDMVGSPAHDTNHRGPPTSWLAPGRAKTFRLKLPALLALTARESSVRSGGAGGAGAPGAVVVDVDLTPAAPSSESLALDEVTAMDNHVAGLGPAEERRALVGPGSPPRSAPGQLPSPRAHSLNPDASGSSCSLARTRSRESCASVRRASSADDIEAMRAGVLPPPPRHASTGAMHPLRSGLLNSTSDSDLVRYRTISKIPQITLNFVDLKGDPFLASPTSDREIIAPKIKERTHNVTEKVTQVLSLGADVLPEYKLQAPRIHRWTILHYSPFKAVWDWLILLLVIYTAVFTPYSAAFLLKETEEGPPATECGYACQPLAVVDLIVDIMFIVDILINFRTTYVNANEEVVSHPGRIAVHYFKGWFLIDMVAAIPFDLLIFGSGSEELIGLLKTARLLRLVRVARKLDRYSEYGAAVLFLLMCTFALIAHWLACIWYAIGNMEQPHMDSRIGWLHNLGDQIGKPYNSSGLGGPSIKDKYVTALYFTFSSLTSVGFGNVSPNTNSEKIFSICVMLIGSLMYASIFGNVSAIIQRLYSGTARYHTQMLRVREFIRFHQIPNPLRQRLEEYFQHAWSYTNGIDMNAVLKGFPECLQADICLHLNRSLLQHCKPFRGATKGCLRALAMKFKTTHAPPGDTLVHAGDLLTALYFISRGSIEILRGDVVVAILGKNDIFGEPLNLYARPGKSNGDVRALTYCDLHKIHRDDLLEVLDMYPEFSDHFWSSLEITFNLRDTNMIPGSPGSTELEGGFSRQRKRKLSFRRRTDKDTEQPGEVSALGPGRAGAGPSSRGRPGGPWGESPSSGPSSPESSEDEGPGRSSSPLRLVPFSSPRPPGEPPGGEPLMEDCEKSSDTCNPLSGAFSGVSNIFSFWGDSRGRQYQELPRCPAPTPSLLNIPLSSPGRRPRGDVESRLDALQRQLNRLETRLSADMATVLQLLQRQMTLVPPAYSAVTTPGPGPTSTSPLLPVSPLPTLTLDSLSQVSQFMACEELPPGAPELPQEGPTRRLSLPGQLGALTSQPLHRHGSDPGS

Compound | hERG current change (%, negative = inhibition) at 1uM
CCC(=O)N1CC2(C)CN(C(=O)CC)CC(C)(C1)C2 | 7.92%
CCc1cccc(N(C(=O)c2csnn2)C(C(=O)NC2CCCC2)c2cccnc2)c1 (stereo not shown) | 7.53%
CC1CCCCN1C(=O)CSc1nnc2c(n1)[nH]c1ccccc12 (stereo not shown) | 9.09%
CCOC(=O)c1sc(Nc2cccc(C)c2C)nc1C | -9.3%
Nc1ccc2nc(CCCCCCc3nc4ccc(N)cc4[nH]3)[nH]c2c1 | 9.44%
COc1ccc(CN2C(=O)[C@@H]3C(c4ccccc4Cl)=NO[C@@H]3C2=O)cc1 | 6.12%
O=C(Nc1ccccc1-c1ccccc1)c1ccc(Cl)c([N+](=O)[O-])c1 | 7.97%
Cc1ccccc1NC(=O)c1cc(=O)c2ccccc2o1 | 2.83%
Cc1c(NC(=O)CN2C(=O)NC3(CCC(C)CC3)C2=O)c(=O)n(-c2ccccc2)n1C (stereo not shown) | 12.9%
N#CC(c1cccc(Cl)c1)c1ncc(C(F)(F)F)cc1Cl (stereo not shown) | 17.3%
COc1ccc(NC(=O)CN2C(=O)NC(C)(c3ccc(C)cc3)C2=O)cn1 (stereo not shown) | 3.36%
CNC(=O)C(=O)NCCC1CCCCN1S(=O)(=O)c1cccs1 (stereo not shown) | 14.8%
COc1ccccc1C(=O)NC(=S)N1CCCc2ccccc21 | 4.79%
Cc1cc(NC(=O)CSc2nnc(Cc3ccccc3)n2C)no1 | 0.442%
O=C1CCC(c2ccccc2)=NN1 | 1.61%
N#Cc1ccccc1COC(=O)CCCC1=NS(=O)(=O)c2ccccc2N1 | 5.85%
CCC(CO)N=CC1=C(O)CC(C)(C)CC1=O (stereo not shown) | 10.1%
COc1cc(C2NC(=O)CCC2[N+](=O)[O-])cc(Br)c1OC (stereo not shown) | 11%
C=CCOc1ccc(CN(C)CC(O)COc2cccc3ccccc23)cc1 (stereo not shown) | 12.2%
Cc1cccnc1NC(=O)C(C)N1C(=O)c2ccccc2C1=O (stereo not shown) | 15.6%
C=CCn1c(=NC(=O)c2cccs2)sc2cccc(OC)c21 | 7.24%
Cc1cccc(C)c1NC(=O)C1CCCCN1C.Cl (stereo not shown) | 15%
CCOc1ccc(CN(C)C(=O)CCl)cc1 | 3.59%

Compound | hERG current change (%, negative = inhibition) at 1uM
Cc1cccc(C(=O)NCC(=O)NCC2COc3ccccc3O2)c1 (stereo not shown) | 5.46%
CC12CCC(C/C1=N\OC(=O)c1ccc(F)cc1)C2(C)C (stereo not shown) | 6.63%
CC1CCN(C(=O)c2cc(F)c(F)cc2Cl)CC1 | 16.2%
O=C(OCc1ccccc1)N1CCc2ccccc21 | 10.1%
O=C(NCCCN1CCOCC1)c1onc(CSc2ccccc2)c1C(=O)NCCCN1CCOCC1 | 14.7%
NS(=O)(=O)c1ccc(N2N=C(c3ccc(Br)cc3)CC2c2ccc(F)cc2)cc1 (stereo not shown) | 11.4%
O=S(=O)(c1cnc(Cl)c(Cl)c1)N1CCN(c2ncccn2)CC1 | 5.7%
COc1ccc(NC(=S)N2CCCCCC2)cc1OC | 15.7%
COc1cc(NC(=O)C23CC4CC(C2)CC(n2nnc(C)n2)(C4)C3)c(OC)cc1Cl | 6.09%
O=C(CNC(=O)c1cccs1)OCC(=O)c1ccc([N+](=O)[O-])cc1 | 24.6%
Cc1ccc(C)c(OCCCC(=O)O)c1 | 10.7%
O=C(CNC(=S)NC(=O)c1ccco1)c1ccccc1 | -4.74%
COC(=O)c1ccc2c(=O)n(Cc3ccc(C(=O)NC(C)C)cc3)c(=S)[nH]c2c1 | 17.8%
COc1cccc(CCNC(=O)CC2C(=O)NCCN2CC(C)(C)C)c1 (stereo not shown) | 13%
COc1ccccc1OCC(O)CNCc1ccc2c(c1)OCO2 (stereo not shown) | -4.46%
COC(=O)C1=C(c2ccc(F)cc2OCc2ccccc2)C[C@@H]2CC[C@H]1N2C(=O)NC1CCN(Cc2ccccc2)CC1 | 13.4%
O=S(=O)(c1ccc(N2CC=C(c3ccccc3)CC2)nc1)N1CCCC1 | 8.41%
COc1cccc(NC(=O)C2CCCN(S(=O)(=O)c3cccc4cccnc34)C2)c1 (stereo not shown) | 10.2%
CC(C)C(=O)c1ccc(O)c(O)c1 | 11.1%
COc1ccc(Cl)cc1NC(=O)N1CCN(C2CCCCC2)CC1 | -14%
CC1(C)CC(N(Cc2cccs2)C(=O)c2ccco2)CCO1 (stereo not shown) | 11.3%
Cc1cc(C)c(C#N)c(SCC(=O)Nc2ccccc2C(N)=O)n1 | -3.6%
Nc1[nH]c(=O)[nH]c(=O)c1N=Nc1ccc(C(=O)O)cc1 | 13.5%

Compound | hERG current change (%, negative = inhibition) at 1uM
CCCCn1c(N)c(N(CC(C)C)C(=O)CSC(C)C(=O)Nc2cc(C)on2)c(=O)[nH]c1=O (stereo not shown) | 10.6%
CCOC(=O)c1ccccc1C(=O)N1CCOCCOCCOCC1 | 6.2%
Cc1ccc(O)c(NS(=O)(=O)c2cccc3nsnc23)c1 | -4.68%
CC(=O)c1ccccc1C(=O)N1CCCC(CCC(=O)N2CCN(c3ccccn3)CC2)C1 (stereo not shown) | 13%
CC(C)[C@H](NC(=O)N1CCn2c1nc1ccccc12)C(=O)NCc1ccc2c(c1)OCO2 | 6.23%
COc1ccc(OC)c(CNC(=O)CCc2cn(C)c3ccccc23)c1 | 14.4%
COc1ccc([C@H]2CC(=O)C=C(c3ccccc3)C2)cc1OC | -3.28%
CC(C)Cn1nc(-c2ccccc2)c2ccccc2c1=O | 10.6%
COc1ccc(C(Nc2cc(C)ccn2)c2ccc3ccc(C)nc3c2O)cc1 (stereo not shown) | 4.46%
CCC(=O)c1ccc(CCCCCC(=O)O)s1 | 11.9%
Cc1cc(C(=O)NCCC2=CCCCC2)c(C)o1 | 8.46%
COC(=O)c1ccccc1NS(=O)(=O)c1ccc2c3c(cccc13)C(=O)N2 | 14.3%
Br.C=CCN1CCc2cc(O)c(O)cc2C(c2ccccc2)C1 (stereo not shown) | 10.1%
CCN(C(=O)c1ccccc1)c1ccc([N+](=O)[O-])cc1 | -3.87%
COCCCN(CCNC(=O)c1ccc(NC2=NC3CS(=O)(=O)CC3S2)cc1)Cc1ccco1 (stereo not shown) | 6.47%
Cc1cc(C)cc(NC(=O)C2CC(=O)n3ncnc3N2)c1 (stereo not shown) | 11.7%
CC1CCCC(NC(=O)CCCn2ncn3c(cc4occc43)c2=O)C1C (stereo not shown) | 9.19%
O=c1n(-c2cccc(Cl)c2)c(=O)n2n1CCC2 | 0.155%
CC(C)OC(=O)CSc1nnc(-c2ccc(Cl)cc2Cl)o1 | 2.47%
COc1ccc(CCNC(=O)CSCc2c(F)cccc2Cl)cc1OC | -0.925%
COc1ccc(S(=O)(=O)NC2CCCC2)cc1C(N)=O | 7.28%
CCOc1ncccc1C(=O)Nc1cccc(-c2nc3cccnc3s2)c1 | 7.41%
COc1ccc(CCNS(=O)(=O)c2ccc(Br)s2)cc1 | 15.6%

Compound | hERG current change (%, negative = inhibition) at 1uM
COc1cccc(CN2CC(C(=O)NC3CCC(O)CC3)CCC2=O)c1 (stereo not shown) | 14.5%
CCN(CC)S(=O)(=O)c1cccc(C(=O)Nc2ccc(S(=O)(=O)NC3=NCCCCC3)cc2)c1 | 13.5%
COc1ccc(/C(C)=N/Nc2nc(C)cc(-c3ccccc3)n2)cc1 | 10.8%
COCc1cc(C(C)=O)ccc1OCC(=O)Nc1ccc(NC(C)=O)cc1 | -3.86%
Cc1ccc2cc(CN(Cc3ccco3)C(=O)c3ccccc3)c(=O)[nH]c2c1C | 2.45%
COc1ccccc1C1C([N+](=O)[O-])=C(N)Oc2c1c(=O)oc1ccccc21 (stereo not shown) | 15.6%
CC1=CC(C)(C)[N+](C)(C)c2ccc(C)cc21.[I-] | 19.2%
Cc1nn(C(=O)CCC(=O)NCc2ccc(OC(C)C)cc2)c2ccccc12 | 9.58%
C=CCOc1nc2c(c(=O)n(C)c(=O)n2C)n1Cc1ccccc1Cl | 8.43%
O=C(CCCN1C(=O)c2cccc3cccc(c23)C1=O)N1CCN(Cc2ccc3c(c2)OCO3)CC1 | 0.941%
Cc1cc(C(=O)O)c(C)n1C1CC1 | 11%
[O-][n+]1ccccc1SCc1ccccc1 | 14.9%
CCOC(=O)c1ccc(-c2c(-c3ccc(OC)cc3)oc(=O)c3cc(OC)c(OC)cc23)cc1F | 14.4%
CCc1cc(=O)[nH]c(SCc2cccnc2)n1 | 15.2%
CC(NC(=O)CN(C)Cc1nc2ccccc2c(=O)[nH]1)c1ccccc1 (stereo not shown) | 9.95%
CCOc1ccc(C(=O)OCC(=O)c2c(N)n(C)c(=O)n(C)c2=O)cc1OCC | 13.1%
CC1(C)CC(=O)C(=Cc2cn(CCC#N)nc2-c2ccc(Cl)cc2)C(=O)C1 | 4.96%
CCOC(=O)c1c(NC(=O)Nc2ccc(Cl)cc2)sc(C)c1C | 2.19%
COc1ccc(-c2nc(C(N)=O)c3[nH]c(=O)n(-c4ccccc4OC)c3n2)c(OC)c1 | 8.6%
CCCCCC[N+](C)(C)CC/C=C1/c2ccccc2Sc2ccc(Cl)cc21.[Br-] | -10.9%
CCOC(=O)N/N=C/c1c[nH]c2ccccc12 | 0.44%
Cc1cc(C)n2nc(C(=O)OCC(=O)N(C)CC(=O)Nc3ccc(F)cc3)nc2n1 | 7.24%
